According to the supplement of paper PMC9151546:
Many values rest on one well or one pass, so single values are uncertain.

Tests used:
[1] = system: CHO-K1; assay: micronucleus frequency (% of nucleated events); higher = more micronuclei (genotoxic)
[2] = system: CHO-K1; assay: hypodiploid nuclei frequency (% of nucleated events); higher = more hypodiploid events (aneugenic)
Experimental: (§1)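 Flow-cytometric in vitro micronucleus assay (Litron MicroFlow) in CHO-K1 cells in 96-well plates, 19 concentrations (4.5-200 µM, n=1 per concentration). Without S9, cells were exposed for 24 h and sampled at 48 h. With Aroclor 1254-induced rat liver S9, cells were exposed for 3-4 h and sampled at 27-28 h. Read-outs are %MN and %hypodiploid nuclei relative to nucleated events, and relative survival as the nuclei-to-bead ratio versus the 1% DMSO vehicle control (x100).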

[3] = system: CHO-K1; assay: relative survival (nuclei to bead ratio vs DMSO control) (% of vehicle control); higher = more surviving cells
Experimental: as §1
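Wherever hypodiploid nuclei frequency (% of nucleated events) is given: hypodiploid nuclei gated on a flow cytometer with 488 nm excitation after SYTOX Green staining, cultures at 37 °C, positive controls vinblastine without S9 and cyclophosphamide with S9.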
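Wherever micronucleus frequency (% of nucleated events) is given: cells lysed with nuclei stained by SYTOX Green, then micronucleus-gated events counted against nucleated events by flow cytometry with 488 nm excitation.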
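Wherever relative survival (nuclei to bead ratio vs DMSO control) is given: Lysed-cell nuclei stained with SYTOX Green and counted against counting beads by flow cytometry at 488 nm excitation, with vinblastine (no S9) and cyclophosphamide (plus S9) as positive controls.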

Clc1ccccc1Cl [1,2-Dichlorobenzene]
Conditions | hypodiploid nuclei frequency, [2] [%] | micronucleus frequency, [1] [%] | relative survival, [3]
concentration: 4.5 (µM), S9 metabolic activation: with S9, exposure time: 3-4 hours | 0.28 | 2.1 | 150
concentration: 4.5 (µM), S9 metabolic activation: without S9, exposure time: 24 hours | 0.72 | 1.52 | 111
concentration: 5.63 (µM), S9 metabolic activation: with S9, exposure time: 3-4 hours | 0.16 | 1.74 | 163
concentration: 5.63 (µM), S9 metabolic activation: without S9, exposure time: 24 hours | 0.56 | 2.12 | 116
concentration: 7.04 (µM), S9 metabolic activation: with S9, exposure time: 3-4 hours | 0.32 | 1.26 | 156
concentration: 7.04 (µM), S9 metabolic activation: without S9, exposure time: 24 hours | 0.58 | 1.96 | 104
concentration: 8.8 (µM), S9 metabolic activation: with S9, exposure time: 3-4 hours | 0.2 | 1.38 | 183
concentration: 8.8 (µM), S9 metabolic activation: without S9, exposure time: 24 hours | 0.62 | 1.74 | 133
concentration: 11 (µM), S9 metabolic activation: with S9, exposure time: 3-4 hours | 0.28 | 1.24 | 150
concentration: 11 (µM), S9 metabolic activation: without S9, exposure time: 24 hours | 0.58 | 2.26 | 114
concentration: 13.7 (µM), S9 metabolic activation: with S9, exposure time: 3-4 hours | 0.22 | 1.48 | 124
concentration: 13.7 (µM), S9 metabolic activation: without S9, exposure time: 24 hours | 0.78 | 1.9 | 111
concentration: 17.2 (µM), S9 metabolic activation: with S9, exposure time: 3-4 hours | 0.3 | 1 | 120
concentration: 17.2 (µM), S9 metabolic activation: without S9, exposure time: 24 hours | 0.8 | 1.92 | 104
concentration: 21.5 (µM), S9 metabolic activation: with S9, exposure time: 3-4 hours | 0.16 | 1.22 | 146
concentration: 21.5 (µM), S9 metabolic activation: without S9, exposure time: 24 hours | 0.66 | 1.7 | 119
concentration: 26.8 (µM), S9 metabolic activation: with S9, exposure time: 3-4 hours | 0.26 | 1.2 | 152
concentration: 26.8 (µM), S9 metabolic activation: without S9, exposure time: 24 hours | 0.54 | 1.74 | 99.3
concentration: 33.6 (µM), S9 metabolic activation: with S9, exposure time: 3-4 hours | 0.16 | 1.06 | 154
concentration: 33.6 (µM), S9 metabolic activation: without S9, exposure time: 24 hours | 0.64 | 2.1 | 117
concentration: 41.9 (µM), S9 metabolic activation: with S9, exposure time: 3-4 hours | 0.2 | 1.58 | 160
concentration: 41.9 (µM), S9 metabolic activation: without S9, exposure time: 24 hours | 0.76 | 1.96 | 137
concentration: 52.4 (µM), S9 metabolic activation: with S9, exposure time: 3-4 hours | 0.36 | 1.94 | 162
concentration: 52.4 (µM), S9 metabolic activation: without S9, exposure time: 24 hours | 0.98 | 2.26 | 112
concentration: 65.5 (µM), S9 metabolic activation: with S9, exposure time: 3-4 hours | 0.14 | 1.58 | 141
concentration: 65.5 (µM), S9 metabolic activation: without S9, exposure time: 24 hours | 0.56 | 2.64 | 94.9
concentration: 81.9 (µM), S9 metabolic activation: with S9, exposure time: 3-4 hours | 0.3 | 1.68 | 184
concentration: 81.9 (µM), S9 metabolic activation: without S9, exposure time: 24 hours | 0.96 | 2.04 | 121
concentration: 102 (µM), S9 metabolic activation: with S9, exposure time: 3-4 hours | 0.28 | 1.34 | 128
concentration: 102 (µM), S9 metabolic activation: without S9, exposure time: 24 hours | 0.74 | 1.94 | 129
concentration: 128 (µM), S9 metabolic activation: with S9, exposure time: 3-4 hours | 0.2 | 1 | 169
concentration: 128 (µM), S9 metabolic activation: without S9, exposure time: 24 hours | 1.22 | 2.24 | 109
concentration: 160 (µM), S9 metabolic activation: with S9, exposure time: 3-4 hours | 0.3 | 1.54 | 132
concentration: 160 (µM), S9 metabolic activation: without S9, exposure time: 24 hours | 0.72 | 1.86 | 95.4
concentration: 200 (µM), S9 metabolic activation: with S9, exposure time: 3-4 hours | 0.14 | 1.36 | 131
concentration: 200 (µM), S9 metabolic activation: without S9, exposure time: 24 hours | 1.14 | 2.56 | 81
